In all, about 340,000 compounds went through this assay and about 6,900 (2%) were called active. Rule as the data show it: active = inhibition above about 30%; inactive = below that, where a call was filed. The list shows a part of the results, in another mix than the full data. Entries without a call were filed so in the source.

The test has as its target D(2) dopamine receptor (Homo sapiens) (UniProt P14416). In words: HTS Assay for Allosteric Antagonists of the Human D2 Dopamine Receptor: Primary Screen for Antagonists. Also: 0% is about no effect. The settings on record: HEK293 TREx D2 cells, calcium flux, dopamine EC80; at 10 µM; stronger effect = higher value. In a few lines: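 Tetracycline-induced HEK293 T-REx cells expressing D2 force-coupled to calcium signalling were dye-loaded, exposed to compound for 180 s, then challenged with an EC80 of dopamine; calcium flux was followed kinetically for a further 180 s.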
Sequence of UniProt P14416 (P14416 whole entry, looked up): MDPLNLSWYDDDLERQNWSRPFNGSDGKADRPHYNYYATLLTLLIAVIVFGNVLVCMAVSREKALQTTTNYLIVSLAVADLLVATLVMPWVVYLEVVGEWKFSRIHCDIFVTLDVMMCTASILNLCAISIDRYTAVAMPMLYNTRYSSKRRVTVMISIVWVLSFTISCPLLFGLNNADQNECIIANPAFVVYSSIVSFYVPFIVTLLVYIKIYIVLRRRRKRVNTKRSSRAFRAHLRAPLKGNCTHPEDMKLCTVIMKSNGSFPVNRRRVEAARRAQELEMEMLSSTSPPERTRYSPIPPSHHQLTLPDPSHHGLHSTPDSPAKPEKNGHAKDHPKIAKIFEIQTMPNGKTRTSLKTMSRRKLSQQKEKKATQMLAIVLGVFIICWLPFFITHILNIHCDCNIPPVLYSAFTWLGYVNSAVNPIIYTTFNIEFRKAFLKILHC
In general, inhibition refers to the change of the read-out against control, counted positive when it falls. With `COc1ccc(NC(=O)CSc2ncccc2C(=O)O)cc1OC`, the inhibition was -6.36%.

As to `Cc1nnc(N2CCCC(C(=O)NCc3ccccc3F)C2)c2nn(-c3ccc(Cl)cc3)c(C)c12` (stereo unspecified), the inhibition was -2.91%.

As to `COc1ccc(C(=O)NCc2nnc(SCC(=O)Nc3ccccc3)n2-c2ccccc2)cc1`, the inhibition was found to be 5.9%.

`Cc1ccc2nc(SCC(=O)Nc3ccc(C)c(Cl)c3)nc(=O)n2c1`: the inhibition is active: 34.7%.

As to `COc1cc(Cl)c(C)cc1NC(=O)c1ccc2c(SCC(=O)O)c3c(nc2c1)CCCC3`, the inhibition stood at 9.89%.

Take `Cc1ccc(-n2nnc(-c3nsc(NC(=O)c4cccc(Cl)c4)n3)c2C)cc1C`: the inhibition is -2.11%.

For `O=C(CSc1n[nH]c(-c2ccccc2)n1)NCCCc1ccccc1`, the inhibition was -20.9%.

In the case of `COCCCNc1nc2cc(OC)c(OC)cc2c2nc(-c3ccccc3)nn12`, the inhibition worked out at 9.92%.

Consider `Cc1ccccc1N1CC(C(=O)Nc2ccc(Br)cc2)CC1=O` (stereo unspecified), for which the inhibition was -21%.

In the case of `CCn1c(=O)c(=O)n(CC)c2cc(N3CCCCC3)c(NC(=O)c3ccc(Cl)cc3)cc21`, the inhibition is -11.5%.

Regarding `COc1ccc(CNC(=O)CN2N=C(c3ccccc3)CCC2=O)c(OC)c1`, the inhibition is -12.6%.

Consider `CC(=O)Nc1ccc(NC(=O)C2CCCN2S(=O)(=O)c2ccc3c(c2)CCCC(=O)N3)cc1` (stereo unspecified), for which the inhibition was -0.511%.

Consider `COc1ccc(OC)c(CCNC(=O)c2cc3c(=O)oc4ccc(C)cc4c3s2)c1`, for which the inhibition was -1.4%.

In the case of `CS(=O)(=O)N1N=C(c2cccs2)CC1c1ccccc1` (stereo unspecified), the inhibition was active: 31.8%.

In the case of `O=C(Nc1ccc2nc(SCc3ccccc3)sc2c1)c1ccccc1F`, the inhibition was found to be 1.46%.

With `O=C(Nc1ccc(F)c(Cl)c1)c1cc(S(=O)(=O)N2CCc3ccccc3C2)ccc1F`, the inhibition is -20.1%.

In the case of `Cc1ccc(OCC(=O)Nc2ccc3c(c2)nc(CCNC(=O)c2ccco2)n3C)cc1`, the inhibition is -6.79%.

Take `O=C(Nc1ccc2oc(-c3cccnc3)nc2c1)c1ccc(-c2ccc(OC(F)(F)F)cc2)o1`: the inhibition amounted to 11.2%.

Regarding `COc1ccc(N2CCN(C(=O)CN3C(=O)CSc4c3c(C)nn4-c3ccccc3)CC2)cc1`, the inhibition stood at 1.2%.

Take `CC(C)CCNC(=O)c1ccc2c(c1)N(Cc1cccc(Cl)c1)C(=O)c1ccccc1S2`: the inhibition was 25.3%.

In the case of `CCCC(=O)n1nc(-c2ccco2)nc1NCc1ccccc1Cl`, the inhibition worked out at 13.1%.

As for `Cc1cc2nn(-c3ccc(F)cc3)nc2cc1NC(=O)c1cccc2ccccc12`, the inhibition was -1.36%.

Turning to `Cc1[nH]c2ccccc2c1/C=N/Nc1ccc(F)cc1F`, the inhibition was active: 31.4%.

`O=C(Nc1nnc(S(=O)(=O)N2CCOCC2)s1)c1ccccc1Cl`: the inhibition was -4.17%.

As to `CN(C)CCCN(C(=O)c1ccc2c(c1)OCCO2)c1nc2ccccc2s1`, the inhibition is 19.6%.

On to `COc1cccc(CNC(=O)CSc2c3c(nc4cc(Cl)ccc24)CCCC3)c1`, for which the inhibition was found to be 0.598%.

For `CCOc1ccccc1NC(=O)Cn1cc(C(=O)c2ccc(Cl)cc2)c(=O)c2ccc(C)nc21`, the inhibition was -10.1%.

For `COc1ccc(Cn2c(=O)c3oc4ccccc4c3n(Cc3cccc(C)c3)c2=O)cc1`, the inhibition is -0.672%.

For `COc1ccccc1CNc1ccc(-c2nc(-c3ccco3)no2)cc1[N+](=O)[O-]`, the inhibition is 8.1%.

`Cc1cccc2c(=O)cc(CSc3ccccc3NC(=O)c3cccc(F)c3)[nH]c12`: the inhibition was -9.45%.

Turning to `CCOc1ccc(C(=O)c2c(N)c(-c3nc(-c4ccc5c(c4)OCO5)cs3)c3ccccn23)cc1`, the inhibition was -1.56%.

For `COC(=O)Cn1c(=O)c2cccn2c2cccnc21`, the inhibition amounted to 4.56%.

With `Cc1ccsc1CN(C(=O)c1oc2cc(Br)ccc2c1C)C1CCS(=O)(=O)C1` (stereo unspecified), the inhibition amounted to 4.76%.

In the case of `O=C(Nc1nc2c(s1)CN(Cc1ccccc1)CC2)C1CCC1`, the inhibition was active: 51.4%.

As to `Cc1cc(C(=O)Nc2ccc(C(C)C)cc2)c2c(C)nn(-c3ccccc3)c2n1`, the inhibition turned out to be 12.3%.

Regarding `CCOC(=O)c1c(-c2ccccc2)csc1NC(=O)c1cc(-c2ccc(F)cc2)on1`, the inhibition was -18%.

With `CC(C)n1cnc(S(=O)(=O)N2CCCC(C(=O)NCc3ccccc3Cl)C2)c1` (stereo unspecified), the inhibition came out at 7.46%.

As to `CC(C)NC(=O)C1CCC(Cn2c(=O)c3sccc3n(CC(=O)NCc3ccccc3)c2=O)CC1` (stereo unspecified), the inhibition is -5.39%.

With `CCCOc1c(Cl)cc(C(=O)N(Cc2cccc(OC)c2)C2CCS(=O)(=O)C2)cc1Cl` (stereo unspecified), the inhibition is -15.7%.

In the case of `CCOc1ccc(NC(=O)c2cnc(N3CCCCC3)c3ccccc23)cc1`, the inhibition is -9.01%.

Regarding `CC1CCc2nc3ncn(Cc4ccccc4F)c(=O)c3cc2C1` (stereo unspecified), the inhibition was found to be 10%.

With `O=C(Nc1ccc(OCc2cc(=O)n3c4c(sc3n2)CCCC4)cc1)c1ccccc1`, the inhibition is -4.19%.

Take `CCOc1ccc(OCC)c(NS(=O)(=O)c2c(C(=O)N3CCC(C)CC3)c(C)n(C)c2C)c1`: the inhibition is 2.11%.

As to `CCOc1ccc(NC(=O)CN(c2ccc(Cl)cc2C)S(=O)(=O)c2ccccc2)cc1`, the inhibition is -13.3%.

As for `COc1ccc(N2CC(NC(=O)c3ccc4c(c3)OCO4)CC2=O)cc1` (stereo unspecified), the inhibition was determined as 20.9%.

In the case of `Cc1ccc(-n2c(SCC(=O)O)nc3sc4c(c3c2=O)CCCC4)cc1`, the inhibition was -3.16%.

Regarding `Cn1cc(C(=O)N2CCN(c3cccc(C(F)(F)F)c3)CC2)c2c3ccccc3n(C)c2c1=O`, the inhibition is 9.01%.

In the case of `CC(=O)Nc1ccc(NC(=O)Cn2nc(C(=O)Nc3ccc(C)cc3)ccc2=O)cc1`, the inhibition was -19.7%.

On to `CCCOc1ccc(Oc2nc(NCC(C)C)nc(N3CCOCC3)n2)nn1`, for which the inhibition is -10.5%.

Consider `COc1ccccc1N1CCN(c2nc(-c3ccc(C)cc3)nc3ccccc23)CC1`, for which the inhibition was -7.69%.

Turning to `COc1cccc(NC(=O)C2CCCN(S(=O)(=O)c3ccc4[nH]c(=O)ccc4c3)C2)c1` (stereo unspecified), the inhibition is -6.32%.

Consider `COc1cc(NC(=O)COCc2cc(-c3ccc(F)cc3)on2)cc(OC)c1OC`, for which the inhibition came to 6.33%.

Regarding `Cc1ccc(C(=O)Nc2cc3c(cc2N2CCCC2)n(C)c(=O)c(=O)n3C)cc1`, the inhibition was -12.2%.

On to `Cc1nn(C(C)(C)C)c(OC(=O)C(C)(C)C)c1Sc1ccccc1`, for which the inhibition is 0.56%.

On to `COc1cccc(-n2c(SCC(=O)c3ccc(Cl)cc3)nc3c([nH]c4ccccc43)c2=O)c1`, for which the inhibition was -0.969%.

As to `CSc1ccc(CNC(=O)c2ccc(NC(=O)c3nsc4ccccc34)cc2)cc1`, the inhibition is 9.48%.

In the case of `O=C(NCc1ccccc1Cl)NCc1noc2ccccc12`, the inhibition was -4%.

For `Cc1ccccc1NC(=O)Cn1c(=O)n(CC2CCC(C(=O)NCCc3ccccc3)CC2)c(=O)c2ccccc21` (stereo unspecified), the inhibition stood at 0.728%.

Turning to `Nc1c(C(=O)Nc2ccccc2)nnn1Cc1ccc(F)cc1Cl`, the inhibition came out at 10.5%.

Regarding `Cc1ccc(CNS(=O)(=O)c2ccc(-c3cc(C(F)(F)F)on3)s2)cc1`, the inhibition is 4.5%.

For the molecule `CCOc1ccccc1C(=O)Nc1nc2c(s1)CC(C)CC2` (stereo unspecified), the inhibition is -12.3%.

For `COc1ccc(Cl)cc1NC(=O)Cn1c(=O)n(CCC(=O)NCc2ccc3c(c2)OCO3)c(=O)c2ccccc21`, the inhibition is -2.36%.

Consider `O=C(NCc1ccccc1Cl)C1CCCN(c2ncnc3onc(-c4ccc(F)cc4)c23)C1` (stereo unspecified), for which the inhibition came out at 23.1%.

Turning to `CCOc1ccccc1N1CCN(CC(O)COC2CCCc3ccccc32)CC1` (stereo unspecified), the inhibition was active: 77.9%.

Consider `O=[N+]([O-])c1ccc(OCC(O)CN2CCN(c3ccccc3F)CC2)cc1` (stereo unspecified), for which the inhibition is active: 90.6%.

On to `Cc1ccc(S(=O)(=O)NCCSc2nnnn2-c2ccc(Cl)c(C(=O)O)c2)cc1`, for which the inhibition came to 9.28%.

For `CC(=O)Nc1ccc(C2Nc3c(C)cc(C)cc3-c3cc(C)nn32)cc1` (stereo unspecified), the inhibition is -7.41%.

As to `CCOC(=O)c1ccc(NC(=O)C(Cc2ccccc2)NS(=O)(=O)c2ccc(Br)s2)cc1` (stereo unspecified), the inhibition was 6.44%.

Turning to `Cc1cc(NNC(=O)c2ccccc2)nc(NNC(=O)c2ccccc2)n1`, the inhibition was active: 34%.

Take `CCOC(=O)c1c(C)oc2nc(C)nc(NCc3ccccc3OCC)c12`: the inhibition was -6.21%.

With `Cc1cc(C)cc(Nc2sc(C(=O)c3ccccc3)c(N)c2S(=O)(=O)c2ccccc2)c1`, the inhibition is -19%.

Turning to `CCCc1cc(=O)n2[nH]c(NCc3ccccc3OC)nc2n1`, the inhibition came out at 7.19%.

Consider `Cn1c(C(=O)O)c(CC(=O)NCC2COc3ccccc3O2)c2ccccc21` (stereo unspecified), for which the inhibition was active: 41.9%.

Take `Cc1ccc(S(=O)(=O)N2CCC(c3ccncc3)CC2)c(C)c1`: the inhibition was determined as 7.67%.

`COc1cc(/C=C/C(=O)c2ccc3c(c2)OCO3)cc(Cl)c1O`: the inhibition is active: 34.8%.

For the molecule `O=C(COc1ccccc1-c1nc(-c2ccccc2)no1)Nc1ccccc1[N+](=O)[O-]`, the inhibition was -7.85%.

In the case of `CCN(CC)c1ccc(/C=C/c2cc(-c3ccccc3)c3ccccc3n2)cc1`, the inhibition is active: 43.3%.

Take `CCOC(=O)C1=C(CS(=O)(=O)c2ccc(F)cc2)NC(=O)NC1c1ccc(OCC)c(OC)c1` (stereo unspecified): the inhibition was -8.55%.

Take `CCc1nn(CC(=O)NC(C)c2ccccc2)c(=O)c2cc3sccc3n12` (stereo unspecified): the inhibition is 9.27%.

Turning to `CCOc1ccc(NC(=O)Cn2nnc(C(=O)Nc3ccc(OCC)cc3)c2N)cc1`, the inhibition was found to be 17.6%.

`CC(C)CCNC(=O)[C@@H](c1ccccc1)N1Cc2ccccc2C1=O`: the inhibition was determined as 22.8%.

Consider `Cc1cc(C)cc(OCC(=O)NCC2(N(C)C)CCCCC2)c1`, for which the inhibition is 12.4%.

For `COc1cccc(NC(=O)C2CCN(C(=O)N3CC(C)Oc4ccccc43)CC2)c1` (stereo unspecified), the inhibition came to 24.8%.

For `O=C(NCCSc1c(-c2ccc(F)cc2)[nH]c2ccccc12)c1ccc(S(=O)(=O)N2CCOCC2)cc1`, the inhibition is -11.4%.

In the case of `Cc1ccc(CNC(=O)CN2C(=O)C3CCCCN3c3ccc(C(=O)N4CCCC4)cc32)cc1` (stereo unspecified), the inhibition was determined as 18.5%.

`O=C(NCc1ccccc1Cl)c1ccc2c(O)c(S(=O)(=O)c3ccccc3)c(=O)[nH]c2c1`: the inhibition turned out to be 8.02%.

As for `COc1ccc(Cl)cc1C(=O)Nc1ccc(-c2nnc3n2CCCCC3)cc1`, the inhibition turned out to be 0.163%.

With `CC(=O)c1ccc(NC(=O)CCc2c(C)nc3cc(-c4ccc(Cl)cc4)nn3c2C)cc1`, the inhibition is 3.44%.

`COc1cccc(-n2c(SCc3ccccc3C)nc3c([nH]c4ccccc43)c2=O)c1`: the inhibition was -1.03%.

`Cc1ccc(C)c(NC(=O)CN(CCc2ccccc2)S(=O)(=O)c2ccccc2)c1`: the inhibition came to 1.03%.

`Cc1cccc(Cc2c(C)nc3nc(SCc4ccccc4C)nn3c2C)c1`: the inhibition is 12.6%.

On to `CCc1ccc(NC(=O)Cn2c(=O)n(CCC(=O)NCc3ccc4c(c3)OCO4)c(=O)c3ccccc32)cc1`, for which the inhibition was -9.95%.

`CCC1CN(C(=O)Nc2cc(C)cc(C)c2)c2ccccc2O1` (stereo unspecified): the inhibition was determined as 9.06%.

As for `Cc1cc(NC(=O)c2cc(-c3ccc(Cl)cc3)on2)nn1Cc1ccc(Cl)cc1`, the inhibition was -7.91%.

As to `NC(=O)c1ccc(NCc2ccco2)c([N+](=O)[O-])c1`, the inhibition is active: 34.5%.

As for `Cc1c(C)n(Cc2ccccc2)c2ccc(C(=O)NCc3ccco3)cc12`, the inhibition is -7.22%.
